Assay [1] addresses T1, DLL4 ECD/His tag (R&D 1506-D4-050) (UniProt Q9NR61 fragment).
T1 construct: extracellular domain; Bought antigen coated on the ELISA plate; not shown: His tag
Put plainly: direct bind ELISA, DLL4 on plate; DLL4 VD N-term.; HC Short, LC Long. A general note: ELISA stands for enzyme-linked immunosorbent assay.

Assay [2] addresses T1, DLL4 ECD/His tag (R&D 1506-D4-050). The experiment in a line: direct bind ELISA, DLL4 on plate; DLL4 VD N-term.; HC Long, LC Short.
The next assay concerns the target T2, PlGF (UniProt P49763-2 21-149, limits assumed).
T2 construct: bought antigen coated on the ELISA plate; also called Placental GF
T2 sequence (looked up): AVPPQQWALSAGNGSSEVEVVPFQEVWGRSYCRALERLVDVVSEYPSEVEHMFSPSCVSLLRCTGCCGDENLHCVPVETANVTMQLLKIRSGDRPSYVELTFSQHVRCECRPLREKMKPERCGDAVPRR
Put plainly: direct bind ELISA, C-terminal VD.

The next assay deals with T3, VEGF (UniProt P15692 27-191, limits assumed).
T3 construct: bought antigen coated on the ELISA plate
T3 sequence (looked up): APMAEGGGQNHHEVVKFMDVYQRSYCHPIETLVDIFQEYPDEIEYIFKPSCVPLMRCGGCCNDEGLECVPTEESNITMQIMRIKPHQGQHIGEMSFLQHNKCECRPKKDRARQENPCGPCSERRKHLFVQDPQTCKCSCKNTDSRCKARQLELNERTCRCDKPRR
Put plainly: direct bind ELISA, N-terminal VD.

B1: DVD505 (bispecific antibody, human IgG1, kappa)
heavy: EVQLQQSGPELVKPGASVKMSCKASGYTFTSYVINWVKQKPGQGLEWIGLINPYNDGTKYNEKFKVKATLTSDKSSSTAYMELSSLTSEDSAVYYCASYYYGSRYYFDYWGQGTTLTVSSASTKGPEVQLVESGGGLVQPGGSLRLSCAASGYTFTNYGMNWVRQAPGKGLEWVGWINTYTGEPTYAADFKRRFTFSLDTSKSTAYLQMNSLRAEDTAVYYCAKYPHYYGSSHWYFDVWGQGTLVTVSS[omitted - human IgG1 constant region]
light: DIQMTQSSSYLSVSLGGRVTITCKASDHINNWLAWYQQKPGNAPRLLISGATSLETGVPSRFSGSGSGKDYTLSITSLQTEDVATYYCQQYWSIPLTFGAGTKLELKRTVAAPSVFIFPPDIQMTQSPSSLSASVGDRVTITCSASQDISNYLNWYQQKPGKAPKVLIYFTSSLHSGVPSRFSGSGSGTDFTLTISSLQPEDFATYYCQQYSTVPWTFGQGTKVEIKRTVAAPSVFIFPPSDEQLKSGTASVVCLLNNFYPREAKVQWKVDNALQSGNSQESVTEQDSKDSTYSLSSTLTLSKADYEKHKVYACEVTHQGLSSPVTKSFNRGEC
notes: DVD-Ig; HC short, LC long linker; also called DVD505H; DVD505L
In general, EC50 refers to the concentration at which the effect is half-maximal. Low values mean an effect from little substance, high ones a need for much substance. As for B1, a half-maximal response in assay [1] (EC50) required 0.09 nM.

B2: DVD499 (bispecific antibody, human IgG1, kappa)
heavy: EVQLQQSGPELVKPGASVKMSCKASGYTFTSYVINWVKQKPGQGLEWIGLINPYNDGTKYNEKFKVKATLTSDKSSSTAYMELSSLTSEDSAVYYCASYYYGSRYYFDYWGQGTTLTVSSASTKGPSVFPLAPEVQLVESGGGLVQPGGSLRLSCAASGYTFTNYGMNWVRQAPGKGLEWVGWINTYTGEPTYAADFKRRFTFSLDTSKSTAYLQMNSLRAEDTAVYYCAKYPHYYGSSHWYFDVWGQGTLVTVSS[omitted - human IgG1 constant region]
light: DIQMTQSSSYLSVSLGGRVTITCKASDHINNWLAWYQQKPGNAPRLLISGATSLETGVPSRFSGSGSGKDYTLSITSLQTEDVATYYCQQYWSIPLTFGAGTKLELKRTVAAPDIQMTQSPSSLSASVGDRVTITCSASQDISNYLNWYQQKPGKAPKVLIYFTSSLHSGVPSRFSGSGSGTDFTLTISSLQPEDFATYYCQQYSTVPWTFGQGTKVEIKRTVAAPSVFIFPPSDEQLKSGTASVVCLLNNFYPREAKVQWKVDNALQSGNSQESVTEQDSKDSTYSLSSTLTLSKADYEKHKVYACEVTHQGLSSPVTKSFNRGEC
notes: DVD-Ig; HC long, LC short linker; also called DVD499H; DVD499L
Turning to B2, a half-maximal response in assay [2] (EC50) required 0.09 nM.

B3: DVD588 (bispecific antibody, human IgG1, kappa)
heavy: EVQLVESGGGLVQPGGSLRLSCAASGYTFTNYGMNWVRQAPGKGLEWVGWINTYTGEPTYAADFKRRFTFSLDTSKSTAYLQMNSLRAEDTAVYYCAKYPHYYGSSHWYFDVWGQGTLVTVSSASTKGPSVFPLAPQVQLQQSGAELVKPGASVKISCKASGYTFTDYYINWVKLAPGQGLEWIGWIYPGSGNTKYNEKFKGKATLTIDTSSSTAYMQLSSLTSEDTAVYFCVRDSPFFDYWGQGTLLTVSS[omitted - human IgG1 constant region]
light: DIQMTQSPSSLSASVGDRVTITCSASQDISNYLNWYQQKPGKAPKVLIYFTSSLHSGVPSRFSGSGSGTDFTLTISSLQPEDFATYYCQQYSTVPWTFGQGTKVEIKRTVAAPDIVLTQSPDSLAVSLGERVTMNCKSSQSLLNSGMRKSFLAWYQQKPGQSPKLLIYWASTRESGVPDRFTGSGSGTDFTLTISSVQAEDVAVYYCKQSYHLFTFGSGTKLEIKRTVAAPSVFIFPPSDEQLKSGTASVVCLLNNFYPREAKVQWKVDNALQSGNSQESVTEQDSKDSTYSLSSTLTLSKADYEKHKVYACEVTHQGLSSPVTKSFNRGEC
notes: HC linker long, LC linker short; also called DVD-Ig DVD588
As to B3, the results for the EC50 with PlGF and in the assay with VEGF were 1.84 nM and 4.1 nM, respectively.

B4: DVD580 (bispecific antibody, human IgG1, kappa)
heavy: EVQLVESGGGLVQPGGSLRLSCAASGYTFTNYGMNWVRQAPGKGLEWVGWINTYTGEPTYAADFKRRFTFSLDTSKSTAYLQMNSLRAEDTAVYYCAKYPHYYGSSHWYFDVWGQGTLVTVSSASTKGPSVFPLAPQVQLQQSGAELVKPGASVKISCKASGYTFTDYYINWVKLAPGQGLEWIGWIYPGSGNTKYNEKFKGKATLTIDTSSSTAYMQLSSLTSEDTAVYFCVRDSPFFDYWGQGTLLTVSS[omitted - human IgG1 constant region]
light: DIQMTQSPSSLSASVGDRVTITCSASQDISNYLNWYQQKPGKAPKVLIYFTSSLHSGVPSRFSGSGSGTDFTLTISSLQPEDFATYYCQQYSTVPWTFGQGTKVEIKRTVAAPSVFIFPPDIVLTQSPDSLAVSLGERVTMNCKSSQSLLNSGMRKSFLAWYQQKPGQSPKLLIYWASTRESGVPDRFTGSGSGTDFTLTISSVQAEDVAVYYCKQSYHLFTFGSGTKLEIKRTVAAPSVFIFPPSDEQLKSGTASVVCLLNNFYPREAKVQWKVDNALQSGNSQESVTEQDSKDSTYSLSSTLTLSKADYEKHKVYACEVTHQGLSSPVTKSFNRGEC
notes: HC linker long, LC linker long; also called DVD-Ig DVD580
Molecule B4 gave an EC50 with PlGF of 34.1 nM.

B5: DVD523 (bispecific antibody, human IgG1, kappa)
heavy: EVQLQQSGPELEKPGASVKISCKASGYSFTGYNMNWVKQSNGKSLEWIGNIDPYFGGTNYNQKFKGKATLTVDKSSSTAYMQLKSLTSEDSAVYYCARNYDYDGGCFDYWGQGTTLTVSSASTKGPSVFPLAPEVQLVESGGGLVQPGGSLRLSCAASGYTFTNYGMNWVRQAPGKGLEWVGWINTYTGEPTYAADFKRRFTFSLDTSKSTAYLQMNSLRAEDTAVYYCAKYPHYYGSSHWYFDVWGQGTLVTVSS[omitted - human IgG1 constant region]
light: QAVVTQESALTTSPGETVTLTCRSSTGAVTTSNYANWVQEKPDHLFTGLIGGTNNRAPGVPARFSGSLIGDKAALTITGAQTEDEAIYFCALWYSNHWVFGGGTKLTVLGQPKAAPDIQMTQSPSSLSASVGDRVTITCSASQDISNYLNWYQQKPGKAPKVLIYFTSSLHSGVPSRFSGSGSGTDFTLTISSLQPEDFATYYCQQYSTVPWTFGQGTKVEIKRTVAAPSVFIFPPSDEQLKSGTASVVCLLNNFYPREAKVQWKVDNALQSGNSQESVTEQDSKDSTYSLSSTLTLSKADYEKHKVYACEVTHQGLSSPVTKSFNRGEC
notes: DVD-Ig; HC long, LC short linker; also called DVD523H; DVD523L
Molecule B5 had an EC50 in assay [2] of 0.09 nM.

B6: DVD475 (bispecific antibody, human IgG1, kappa)
heavy: EVQLVESGGGLVQPGGSLRLSCAASGFTFTDNWISWVRQAPGKGLEWVGYISPNSGFTYYADSVKGRFTISADTSKNTAYLQMNSLRAEDTAVYYCARDNFGGYFDYWGQGTLVTVSSASTKGPSVFPLAPEVQLVESGGGLVQPGGSLRLSCAASGYTFTNYGMNWVRQAPGKGLEWVGWINTYTGEPTYAADFKRRFTFSLDTSKSTAYLQMNSLRAEDTAVYYCAKYPHYYGSSHWYFDVWGQGTLVTVSS[omitted - human IgG1 constant region]
light: DIQMTQSPSSLSASVGDRVTITCRASQDVSTAVAWYQQKPGKAPKLLIYSASFLYSGVPSRFSGSGSGTDFTLTISSLQPEDFATTYYCQQSYTGTVTFGQGTKVEIKRTVAAPDIQMTQSPSSLSASVGDRVTITCSASQDISNYLNWYQQKPGKAPKVLIYFTSSLHSGVPSRFSGSGSGTDFTLTISSLQPEDFATYYCQQYSTVPWTFGQGTKVEIKRTVAAPSVFIFPPSDEQLKSGTASVVCLLNNFYPREAKVQWKVDNALQSGNSQESVTEQDSKDSTYSLSSTLTLSKADYEKHKVYACEVTHQGLSSPVTKSFNRGEC
notes: DVD-Ig; HC long, LC short linker; also called DVD475H; DVD475L
Turning to B6, in assay [2], the EC50 is 0.23 nM.

B7: DVD529 (bispecific antibody, human IgG1, kappa, lambda)
heavy: EVQLQQSGPELEKPGASVKISCKASGYSFTGYNMNWVKQSNGKSLEWIGNIDPYFGGTNYNQKFKGKATLTVDKSSSTAYMQLKSLTSEDSAVYYCARNYDYDGGCFDYWGQGTTLTVSSASTKGPEVQLVESGGGLVQPGGSLRLSCAASGYTFTNYGMNWVRQAPGKGLEWVGWINTYTGEPTYAADFKRRFTFSLDTSKSTAYLQMNSLRAEDTAVYYCAKYPHYYGSSHWYFDVWGQGTLVTVSS[omitted - human IgG1 constant region]
light: QAVVTQESALTTSPGETVTLTCRSSTGAVTTSNYANWVQEKPDHLFTGLIGGTNNRAPGVPARFSGSLIGDKAALTITGAQTEDEAIYFCALWYSNHWVFGGGTKLTVLGQPKAAPSVTLFPPDIQMTQSPSSLSASVGDRVTITCSASQDISNYLNWYQQKPGKAPKVLIYFTSSLHSGVPSRFSGSGSGTDFTLTISSLQPEDFATYYCQQYSTVPWTFGQGTKVEIKRTVAAPSVFIFPPSDEQLKSGTASVVCLLNNFYPREAKVQWKVDNALQSGNSQESVTEQDSKDSTYSLSSTLTLSKADYEKHKVYACEVTHQGLSSPVTKSFNRGEC
notes: DVD-Ig; HC short, LC long linker; also called DVD529H; DVD529L
Turning to B7, the concentration giving a half-maximal response (EC50) in assay [1] is 0.1 nM.

B8: DVD481 (bispecific antibody, human IgG1, kappa)
heavy: EVQLVESGGGLVQPGGSLRLSCAASGFTFTDNWISWVRQAPGKGLEWVGYISPNSGFTYYADSVKGRFTISADTSKNTAYLQMNSLRAEDTAVYYCARDNFGGYFDYWGQGTLVTVSSASTKGPEVQLVESGGGLVQPGGSLRLSCAASGYTFTNYGMNWVRQAPGKGLEWVGWINTYTGEPTYAADFKRRFTFSLDTSKSTAYLQMNSLRAEDTAVYYCAKYPHYYGSSHWYFDVWGQGTLVTVSS[omitted - human IgG1 constant region]
light: DIQMTQSPSSLSASVGDRVTITCRASQDVSTAVAWYQQKPGKAPKLLIYSASFLYSGVPSRFSGSGSGTDFTLTISSLQPEDFATTYYCQQSYTGTVTFGQGTKVEIKRTVAAPSVFIFPPDIQMTQSPSSLSASVGDRVTITCSASQDISNYLNWYQQKPGKAPKVLIYFTSSLHSGVPSRFSGSGSGTDFTLTISSLQPEDFATYYCQQYSTVPWTFGQGTKVEIKRTVAAPSVFIFPPSDEQLKSGTASVVCLLNNFYPREAKVQWKVDNALQSGNSQESVTEQDSKDSTYSLSSTLTLSKADYEKHKVYACEVTHQGLSSPVTKSFNRGEC
notes: DVD-Ig; HC short, LC long linker; also called DVD481H; DVD481L
As for B8, in assay [1], the EC50 came to 3.3 nM.
